# Source: PubChem BioAssay AID1508642 (National Center for Advancing Translational Sciences (NCATS), 2021)
# Out of some 43,000 compounds screened, about 200 (0.47%) were called active. Another 12% or so got no clear call; they are omitted. Calls come from the whole dose curve; as a rule, active = well fitted cell-killing curve with a large enough effect; inconclusive = small, poorly fitted or top-dose-only effect, or effect the other way; inactive = flat fitted curve, though single readings scatter. Some of the results follow.
# Assay: Cell viability qHTS assay in S16 Pmp22-F2sN cells; note: nearly all actives have a fitted effect of over 65% in size
# Conditions: S16 Pmp22-F2sN Schwann cells (luciferase reporters placed in the Pmp22 gene) viability, CellTiter-Glo, 24 h; series mostly up to 57.5 µM; activity change, negative = cytotoxicity: at the top concentration
# Method in brief: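 S16 Schwann cells carrying the Pmp22-F2sN reporter, seeded in 1536-well format, were exposed to library compounds for 24 h at 37C. Viability was read as CellTiter-Glo luminescence after 15 min at room temperature.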
# % is set by controls: 0 for no effect and ±100 for the full control effect.
row,Structure (SMILES),"activity change, negative = cytotoxicity"
1,COc1ccc(CCNc2nc(SCc3ccccc3F)nc3ccccc23)cc1OC,inactive: -4.1%
2,CCOC(=O)c1c(C)oc2nc(C)nc(NCCc3ccc(OC)c(OC)c3)c12,inactive: -11.8%
3,COC(=O)c1sc(N2C(=O)c3oc4ccc(C)cc4c(=O)c3C2c2ccc(O)c(OC)c2)nc1C (stereo unspecified),inactive: -12.8%
4,CCCCC(CC)CNC(=O)CCCCn1c(=O)[nH]c2ccsc2c1=O (stereo unspecified),inactive: -12.9%
5,Cc1cccc(-c2noc(-c3ccc(NCc4ccccc4)c([N+](=O)[O-])c3)n2)c1,inactive: 6.18%
6,CC1=C(c2ccc(C)c(C)c2)S(=O)(=O)N=C1N1CCC(C(=O)NCc2ccccc2C)CC1,inactive: -4.27%
7,Cc1ccc(NC(=O)CN2C(=O)COc3ccc(S(=O)(=O)N4CCOCC4)cc32)cc1N(C)C,inactive: 16.3%
8,COc1ccccc1N1CCN(CCCNC(=O)c2nnc(Cc3ccc(F)cc3Cl)o2)CC1,inactive: -19.3%
9,Cc1ccc(N(C)S(=O)(=O)c2ccc(-c3coc(C)n3)cc2)cc1,inactive: 2.01%
10,Cc1nn(CC(=O)NCCc2ccccc2)c(=O)c2nn(-c3ccccc3)c(C)c12,inactive: 0.657%
11,COc1cc(C2C(C(=O)Nc3ccc(Cl)cc3)=C(C)Nc3nc(SC)nn32)cc(OC)c1OC (stereo unspecified),inactive: 0.929%
12,CC1=C(C(N)=O)C(c2cccc(Br)c2)n2nc(SCc3ccccc3Cl)nc2N1 (stereo unspecified),inactive: -7.88%
13,Cc1cc(C)c2oc(-c3ccc(NC(=O)COc4ccccc4C)cc3)nc2c1,inactive: -2.17%
14,CCOc1ccc(CCNC(=O)c2cc3sccc3n2CC)cc1OCC,inactive: -0.774%
15,CC(C)Cc1ccc(S(=O)(=O)NCc2nc3cccnc3n2Cc2ccccc2)cc1,inactive: -9.59%
16,COc1ccc(-n2ncc(C(=O)N3CCN(C(=O)c4ccco4)CC3)c2C2CCN(C(=O)OC(C)(C)C)CC2)cc1,inactive: -1.95%
17,COc1ccc(-c2ccc(CNCCCSc3nnnn3C)o2)cc1Cl,inactive: 4.4%
18,Cc1ccc(-n2nc3c(N4CCC(C(=O)NC5CCCCC5)CC4)nnc(C)c3c2C)cc1,inactive: -16.7%
19,Cc1cc2oc(C(=O)Nc3ccc(S(=O)(=O)N4CCC(C)CC4)cc3)cc(=O)c2cc1C,inactive: -2.98%
20,Cc1ccc(/C=C/C(=O)N2CCC(c3nc4ccccc4o3)CC2)cc1,inactive: -2.96%
21,COc1ccc(NC(=O)c2c(NCc3ccc(OC)c(OC)c3OC)sc3c2CCC3)c(OC)c1,inactive: -24.1%
22,CCCCCOc1ccccc1CN1C(=O)C(=O)c2cc(C)ccc21,inactive: -0.0419%
23,COc1cccc(CNC(=O)Cn2nc(-c3ccc(C)cc3)ccc2=O)c1,inactive: -6.46%
24,COc1ccccc1NC(=O)CSc1ccc(-c2ccccn2)nn1,inactive: -10.9%

row,Structure (SMILES),"activity change, negative = cytotoxicity"
1,Cc1ccc(N(C)C(CNS(=O)(=O)c2ccccc2)c2ccccc2)cc1 (stereo unspecified),inactive: -5.3%
2,Cc1ccc(CNC(=O)C2CCC(CNS(=O)(=O)c3ccc(C)cc3)CC2)cc1 (stereo unspecified),inactive: 12%
3,COc1ccc(-n2ccnc2SCC(=O)Nc2cccc(OC)c2)cc1,inactive: -9.85%
4,Cc1ccc(NC(=O)Cn2cc(C(=O)c3ccco3)c3ccccc32)cc1C,inactive: -2.97%
5,CCn1ccc2cc(S(=O)(=O)N3CCCN(C(=O)Nc4cccc(SC)c4)CC3)ccc21,inactive: 1.25%
6,CCCNC(=O)C1CCN(C(=O)N2CC(C)Oc3ccccc32)CC1 (stereo unspecified),inactive: -0.0255%
7,O=C(C1CCC(Cn2c(=O)c3sccc3n(Cc3cccc(F)c3)c2=O)CC1)N1CCOCC1 (stereo unspecified),inactive: -26.3%
8,CCCCCCNC(=O)c1c[nH]c2ccc(S(=O)(=O)N(C)c3ccc(C(C)C)cc3)cc2c1=O,inactive: -7.16%
9,N#C/C(=C/c1ccccc1Cl)c1nc2ccccc2c(=O)[nH]1,inactive: 1.57%
10,COc1ccc(N2CCN(C3(c4ccccc4)C(=O)c4ccccc4C3=O)CC2)cc1,inactive: -3.41%
11,Cc1ccc(Cl)cc1N(C)C(=O)c1cc2c(Cl)nc3ccccc3c2s1,inactive: 18.2%
12,COc1ccc(N2C(=O)CSC23C(=O)N(CC(=O)Nc2ccccc2F)c2ccccc23)cc1 (stereo unspecified),inactive: -15.4%
13,Cc1cccc(C(=O)Nc2cc3nn(-c4ccc(C(C)C)cc4)nc3cc2C)c1,inactive: 5.62%
14,COc1cccc(OC(=O)CSc2nnc(-c3cccs3)o2)c1,inactive: 2.16%
15,Cc1cc2nn(-c3ccc(F)cc3)nc2cc1NC(=O)c1cccc([N+](=O)[O-])c1C,inactive: -0.317%
16,CC(=O)Nc1ccc(Nc2nc3c(S(=O)(=O)c4cc(C)ccc4C)nnn3c3ccsc23)cc1,inactive: -0.707%
17,COC(=O)c1ccccc1NC(=O)c1nn(C)c2c1COc1ccccc1-2,inactive: -1.9%
18,Cn1c(SCC(=O)Nc2nc3ccccc3s2)ncc(C(=O)Nc2ccc(Cl)cc2)c1=O,inactive: -3.14%
19,CCOCCCNC(=O)c1cn(CC(C)C)c(=O)c2c1c1ccccc1n2C,inactive: 16.8%
20,COc1cccc(NC(=O)Cn2nnc(C(=O)NCc3ccc4c(c3)OCO4)c2N)c1,inactive: -2.96%
21,CSc1ncc(Cl)c(C(=O)N(C)c2ccccc2)n1,inactive: 10.8%
22,CCN1CCN(c2ncc3c(n2)CCN(Cc2cccc(F)c2F)C3)CC1,inactive: 10.5%
23,Cc1cc(C)c(NC(=O)CSc2nc(=O)n(Cc3cccnc3)c3c2CCC3)c(C)c1,inactive: 6.19%
24,COc1ccccc1Nc1ncc2c(n1)CCN(Cc1cc(F)cc(F)c1)C2,inactive: -17.2%

row,Structure (SMILES),"activity change, negative = cytotoxicity"
1,Cc1ccc(N2CCN(Cc3nnc(-c4ccccc4F)o3)CC2)c(C)c1,inactive: -23%
2,Cc1ccc(-c2c3c(=O)n(C)c(=O)n(C)c3c3cnc4ccccc4n23)cc1,inactive: -7.29%
3,Cc1ccc(S(=O)(=O)CC(=O)Nc2nc3c(C)cccc3s2)cc1,inactive: 6.74%
4,O=C(Nc1ccc(Cl)c(C(F)(F)F)c1)c1nc2ccccc2nc1N1CCCCC1,inactive: -1.91%
5,COc1ccc(-c2[nH]c3c(c2-c2c(-n4cccc4)n(C)c(=O)[nH]c2=O)c(=O)[nH]c(=O)n3C)cc1F,inactive: 8.17%
6,COc1ccccc1Nc1nc(N)nc(N)c1S(=O)(=O)c1ccccc1,inactive: 6.03%
7,COc1ccc(-n2nnc(-c3nsc(NC(=O)c4cccc(C)c4)n3)c2C)cc1OC,inactive: 2.3%
8,COc1cccc(NC(=O)/C(C#N)=C/c2c(C)n(Cc3ccccc3)c3ccccc23)c1,inactive: -15.1%
9,CCOc1ccc(NC(=O)CCc2c(C)nc3nc(-c4cc(OC)cc(OC)c4)nn3c2C)cc1,inactive: 16.9%
10,CC(=O)N1CCc2cc(Br)cc(S(=O)(=O)NCCc3cccc(C)c3)c21,inactive: 2.22%
11,Cc1ccc(Nc2nc3ccccc3nc2-n2nc(C)cc2C)c(Cl)c1,inactive: 15.8%
12,CSc1ccc(CNC(=O)c2sc3ncnc(N(C)C4CCCCC4)c3c2C)cc1,inactive: -6.61%
13,Cc1cccc(C(=O)N2c3ncnn3C3(CCCCC3)[C@@H]3CCCC[C@@H]32)c1,inactive: -26.5%
14,COc1cc2c(cc1NC(=O)COc1ccc(Br)cc1)oc1ccccc12,inactive: 2.06%
15,Cc1cc(C)c(NC(=O)C2CCN(C(=O)N3CCOc4ccccc43)CC2)c(C)c1,inactive: 3.51%
16,COc1ccc(-c2cc(C(F)(F)F)n3ncc(-c4ccccc4)c3n2)cc1,inactive: -15.3%
17,COC(=O)c1ccc2c(=O)n(CCc3ccc(S(N)(=O)=O)cc3)c(SCC(=O)C(C)(C)C)nc2c1,inactive: 0.202%
18,CCOC(=O)c1cccc(NS(=O)(=O)c2ccc(-c3coc(C)n3)cc2)c1,inactive: -0.139%
19,CCOCCCn1c(SCC(=O)NCc2ccccc2)nc2c(sc3ccccc32)c1=O,inactive: 16.6%
20,COc1ccc(NC(=O)c2nnn(CC(=O)Nc3cccc(C)c3C)c2N)c(OC)c1,inactive: -7.47%
21,COc1ccccc1CNc1nc2ccccc2c2nc(-c3cccc(C)c3)nn12,inactive: 2.46%
22,COc1cc([N+](=O)[O-])ccc1NC(=O)N1CCC2(CC1)Nc1ccccc1-n1cccc12,inactive: 5.86%
23,COc1ccc2cc3cc(C(=O)N4CCN(c5cccc(C(F)(F)F)c5)CC4)sc3nc2c1,inactive: -5.6%
24,COc1ccc(-c2nc3sc(CCNC(=O)C(=O)Nc4cc(F)ccc4F)c(C)n3n2)cc1,inactive: 1.65%

row,Structure (SMILES),"activity change, negative = cytotoxicity"
1,Cc1cccc(NC(=O)CN(C)S(=O)(=O)c2ccc3c(c2)CCC(=O)N3)c1C,inactive: 2.71%
2,CCOc1ccc(C(=O)Nc2cccc(NC(=O)c3ccc(Cl)cc3Cl)c2)cc1,inactive: -7.13%
3,CCCCOc1ccccc1Cn1c(=O)sc2ccccc21,inactive: -0.984%
4,CC(C)CCNC(=O)c1cc(-c2ccc(Br)s2)nc2ccccc12,inactive: -2.6%
5,COc1ccc(-c2cc(C)no2)cc1S(=O)(=O)N1CCCC(C)C1 (stereo unspecified),inactive: -8.67%
6,Cc1cccc(NC(=O)c2ccc3[nH]c(C)cc(=O)c3c2)c1,inactive: 12.7%
7,Cn1c(=O)[nH]c(=O)c2c1nc(CN1CCN(c3ccccc3)CC1)n2Cc1c(F)cccc1Cl,inactive: -4.03%
8,COc1cccc(NC(=O)Nc2ccc3snnc3c2)c1,inactive: -29.8%
9,CCOc1ccc2nc(N3CCCC(C(=O)Nc4ccc(CC)cc4)C3)sc2c1 (stereo unspecified),inactive: -5.7%
10,CCc1ccc2oc(-c3cccc(NC(=O)COc4ccccc4Cl)c3)nc2c1,inactive: 2.42%
11,CCN(CC)S(=O)(=O)c1ccc2c(c1)N(CC(=O)NCCc1ccccc1)C(=O)CO2,inactive: 5.08%
12,Cc1ccc(NC(=O)Cn2c(=O)nc(-c3ccccc3)c3ccccc32)cc1,inactive: 0.501%
13,CCCCNC(=O)CCn1nc(-c2ccc(Cl)cc2)c2ccccc2c1=O,inactive: -24.2%
14,CCCCOc1ccc(CNC(=O)c2cnc3sc(N4CCCCCC4)nn3c2=O)cc1,inactive: 0.225%
15,Cc1c(C(=O)NCc2cccc(F)c2)oc2c1-c1[nH]ncc1CC2,inactive: -7.56%
16,Cc1cccc(C(=O)n2nc(-c3cccnc3)nc2NCc2ccc(F)cc2)c1,inactive: -1.43%
17,COc1cc(NC(=O)C(CC(C)C)N2Cc3ccccc3C2=O)cc(OC)c1 (stereo unspecified),inactive: -11.2%
18,CCOc1ccc(NC(=O)CSc2nc3ccsc3c(=O)n2CC)cc1,inactive: -4.29%
19,CCN(CC)C(=O)c1ccc2c(c1)N(Cc1ccccc1F)C(=O)c1ccccc1S2=O (stereo unspecified),inactive: -0.113%
20,COc1ccc(NC(=O)C2CCCN(S(=O)(=O)c3c(C)[nH]c(=O)[nH]c3=O)C2)cc1 (stereo unspecified),inactive: -0.0934%
21,CCCCOc1ccc(CNC(=O)CN2C(=O)CCn3nc(-c4cn(C)c5ccccc45)cc32)cc1,inactive: 0.568%
22,CCC1CN(C(=O)NCc2ccc(F)cc2)c2cc(Cl)ccc2O1 (stereo unspecified),inactive: -7.05%
23,COc1ccc(C2CC(=O)c3cc(-c4nc(-c5ccc(C)cc5)cs4)c(=O)[nH]c3C2)cc1 (stereo unspecified),inactive: 9.8%
24,CCOC(=O)c1c(C)[nH]c(C)c1S(=O)(=O)N(C)CC(=O)NCc1ccc(C)cc1,inactive: -4.97%
